Results are given in words; binding and its absence hold for the method and conditions named. Binding seen in cells or lysates may run through a third protein. Some entries that bind do so weakly or less than the wild type. For part of these data: Where a sequence is shown, tags or fusion partners need not be part of it.
Assays:
[1] = molecular target: MBP-protA fragment aa 840–1014 (Wuhan nodavirus (WhNV)) (UniProt Q3KSM3); test: pull-down; only the target purified
[2] = molecular target: MBP-protA fragment aa 840–1014 (Wuhan nodavirus (WhNV)) (UniProt Q3KSM3); test: pull-down; MBP fusion protein (1 µM) held on amylose resin, His-tagged protein (1 µM) in vitro translated in rabbit reticulocyte lysate; room temperature, 4 hrs; no lipids; Western blot with anti-His; signals given as % of FL to FL protein A self-interaction; only the target purified
[3] = molecular target: MBP-protA fragment aa 660–839 (Wuhan nodavirus (WhNV)) (UniProt Q3KSM3); test: pull-down; only the target purified
[4] = molecular target: MBP-protA fragment aa 660–839 (Wuhan nodavirus (WhNV)) (UniProt Q3KSM3); test: pull-down; MBP fusion protein (1 µM) held on amylose resin, His-tagged protein (1 µM) in vitro translated in rabbit reticulocyte lysate; room temperature, 4 hrs; no lipids; Western blot with anti-His; signals given as % of FL to FL protein A self-interaction; only the target purified
[5] = molecular target: MBP-protA fragment aa 255–839 (Wuhan nodavirus (WhNV)) (UniProt Q3KSM3); test: as above
[6] = molecular target: MBP-protA fragment aa 255–1014 (Wuhan nodavirus (WhNV)) (UniProt Q3KSM3); test: as above
[7] = molecular target: MBP-protA fragment aa 660–839 (Wuhan nodavirus (WhNV)) (UniProt Q3KSM3); test: as above; remark: listed apart in the source
[8] = molecular target: MBP-protA fragment aa 481–1014 (Wuhan nodavirus (WhNV)) (UniProt Q3KSM3); test: as above
[9] = molecular target: MBP-protA fragment aa 255–659 (Wuhan nodavirus (WhNV)) (UniProt Q3KSM3); test: as above
[10] = molecular target: MBP-protA fragment aa 660–1014 (Wuhan nodavirus (WhNV)) (UniProt Q3KSM3); test: as above
[11] = molecular target: MBP-protA fragment aa 481–839 (Wuhan nodavirus (WhNV)) (UniProt Q3KSM3); test: as above
[12] = molecular target: MBP-protA fragment aa 840–1014 (Wuhan nodavirus (WhNV)) (UniProt Q3KSM3); test: as above; remark: listed apart in the source
[13] = molecular target: T1, MBP-tagged full-length (FL) WhNV protein A (Wuhan nodavirus (WhNV)) (UniProt Q3KSM3); test: as above
T1 sequence: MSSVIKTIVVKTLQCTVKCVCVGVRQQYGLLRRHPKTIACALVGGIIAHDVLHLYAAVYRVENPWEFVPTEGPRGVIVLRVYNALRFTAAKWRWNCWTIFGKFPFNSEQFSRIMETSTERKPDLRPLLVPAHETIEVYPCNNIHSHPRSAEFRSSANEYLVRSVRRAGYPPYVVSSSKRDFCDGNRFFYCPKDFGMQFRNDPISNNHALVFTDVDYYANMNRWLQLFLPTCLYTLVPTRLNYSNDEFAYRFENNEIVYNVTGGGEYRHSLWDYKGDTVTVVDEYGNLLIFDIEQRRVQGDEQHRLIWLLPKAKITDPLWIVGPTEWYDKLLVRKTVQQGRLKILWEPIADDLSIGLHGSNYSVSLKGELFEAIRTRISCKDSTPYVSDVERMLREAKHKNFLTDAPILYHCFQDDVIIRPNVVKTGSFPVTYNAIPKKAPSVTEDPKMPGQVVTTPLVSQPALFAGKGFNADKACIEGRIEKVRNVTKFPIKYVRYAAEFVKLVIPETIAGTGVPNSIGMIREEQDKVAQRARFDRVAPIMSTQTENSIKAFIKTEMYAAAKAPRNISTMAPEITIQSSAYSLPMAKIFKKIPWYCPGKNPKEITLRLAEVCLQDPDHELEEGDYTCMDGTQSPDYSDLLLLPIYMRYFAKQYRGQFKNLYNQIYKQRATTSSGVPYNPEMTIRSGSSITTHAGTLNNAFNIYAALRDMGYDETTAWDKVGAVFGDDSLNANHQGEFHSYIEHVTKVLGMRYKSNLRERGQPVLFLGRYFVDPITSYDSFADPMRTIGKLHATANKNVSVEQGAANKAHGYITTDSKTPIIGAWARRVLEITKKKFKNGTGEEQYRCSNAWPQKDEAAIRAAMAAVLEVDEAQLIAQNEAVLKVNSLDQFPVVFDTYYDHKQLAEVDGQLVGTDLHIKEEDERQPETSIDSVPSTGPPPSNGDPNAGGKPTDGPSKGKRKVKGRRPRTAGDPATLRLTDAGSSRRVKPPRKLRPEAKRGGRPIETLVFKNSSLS

[14] = molecular target: T2, MBP-protA fragment aa 1–254 (Wuhan nodavirus (WhNV)) (UniProt Q3KSM3); test: pull-down; only the target purified
T2 sequence: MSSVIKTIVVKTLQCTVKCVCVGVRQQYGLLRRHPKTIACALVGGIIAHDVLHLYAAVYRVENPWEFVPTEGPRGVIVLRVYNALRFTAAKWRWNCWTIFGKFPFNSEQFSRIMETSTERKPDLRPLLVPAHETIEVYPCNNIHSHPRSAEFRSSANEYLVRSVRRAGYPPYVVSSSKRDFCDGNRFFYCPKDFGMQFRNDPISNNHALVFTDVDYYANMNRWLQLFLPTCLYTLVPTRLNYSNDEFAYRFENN

[15] = molecular target: T3, MBP-protA fragment aa 255–480 (Wuhan nodavirus (WhNV)) (UniProt Q3KSM3); test: pull-down; only the target purified
T3 sequence: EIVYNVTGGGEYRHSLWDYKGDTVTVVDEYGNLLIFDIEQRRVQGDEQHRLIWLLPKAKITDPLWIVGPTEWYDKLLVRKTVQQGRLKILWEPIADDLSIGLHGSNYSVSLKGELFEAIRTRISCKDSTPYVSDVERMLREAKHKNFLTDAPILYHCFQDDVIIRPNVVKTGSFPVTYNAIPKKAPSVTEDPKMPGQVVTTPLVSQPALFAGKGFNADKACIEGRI

Molecule: His-protA fragment aa 840–1014, in vitro translated (from UniProt Q3KSM3 840-1014) (domain or fragment)
- binding [1]: no binding
- binding [2]: no binding

Molecule: His-protA fragment aa 660–839, in vitro translated (from UniProt Q3KSM3 660-839) (domain or fragment)
- binding [3]: no binding
- binding [4]: no binding

B1: His-tagged WhNV protein A, in vitro translated (natural protein)
chain: T1 sequence
notes: also called His-protA; FL His-protA; source: in vitro translated in nuclease-treated rabbit reticulocyte lysates
- binding [5]: binds
- binding [6]: binds
- binding [7]: no binding (tested: 1 µM)
- binding [8]: binds
- binding [9]: binds
- binding [10]: no binding (tested: 1 µM)
- binding [11]: binds
- binding [12]: no binding (tested: 1 µM)
- binding [13]: binds

B2: His-protA fragment aa 1–254, in vitro translated (domain or fragment)
chain: T2 sequence
notes: also called 1–254 His/protA; wt protein A fragment aa 1–254; source: in vitro translated in nuclease-treated rabbit reticulocyte lysates
- binding [14]: binds

B3: His-protA fragment aa 255–480, in vitro translated (domain or fragment)
chain: T3 sequence
notes: source: in vitro translated in nuclease-treated rabbit reticulocyte lysates
- binding [14]: binds
- binding [15]: binds

B4: His-protA fragment aa 481–659, in vitro translated (domain or fragment)
chain: EKVRNVTKFPIKYVRYAAEFVKLVIPETIAGTGVPNSIGMIREEQDKVAQRARFDRVAPIMSTQTENSIKAFIKTEMYAAAKAPRNISTMAPEITIQSSAYSLPMAKIFKKIPWYCPGKNPKEITLRLAEVCLQDPDHELEEGDYTCMDGTQSPDYSDLLLLPIYMRYFAKQYRGQFKN
notes: as for B3
- binding [14]: binds
- binding [15]: binds
